Measured values taken from PMC4336329 (PLoS ONE, 2015).
In all, about 310,000 compounds went through this assay and about 14,000 (4.5%) showed an effect of 50% or more. Effects have a minus sign here. This is one part of the list.

Each molecule was assayed against human ether-à-go-go-related gene (hERG) potassium channel (human, UniProt Q12809) (assay: primary screen, population patch clamp on CHO cells stably expressing hERG).
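Note: peak tail current of the secondary pulse compared with the same well before compound.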

Sequence of human ether-à-go-go-related gene (hERG) potassium channel (Q12809 whole entry, looked up): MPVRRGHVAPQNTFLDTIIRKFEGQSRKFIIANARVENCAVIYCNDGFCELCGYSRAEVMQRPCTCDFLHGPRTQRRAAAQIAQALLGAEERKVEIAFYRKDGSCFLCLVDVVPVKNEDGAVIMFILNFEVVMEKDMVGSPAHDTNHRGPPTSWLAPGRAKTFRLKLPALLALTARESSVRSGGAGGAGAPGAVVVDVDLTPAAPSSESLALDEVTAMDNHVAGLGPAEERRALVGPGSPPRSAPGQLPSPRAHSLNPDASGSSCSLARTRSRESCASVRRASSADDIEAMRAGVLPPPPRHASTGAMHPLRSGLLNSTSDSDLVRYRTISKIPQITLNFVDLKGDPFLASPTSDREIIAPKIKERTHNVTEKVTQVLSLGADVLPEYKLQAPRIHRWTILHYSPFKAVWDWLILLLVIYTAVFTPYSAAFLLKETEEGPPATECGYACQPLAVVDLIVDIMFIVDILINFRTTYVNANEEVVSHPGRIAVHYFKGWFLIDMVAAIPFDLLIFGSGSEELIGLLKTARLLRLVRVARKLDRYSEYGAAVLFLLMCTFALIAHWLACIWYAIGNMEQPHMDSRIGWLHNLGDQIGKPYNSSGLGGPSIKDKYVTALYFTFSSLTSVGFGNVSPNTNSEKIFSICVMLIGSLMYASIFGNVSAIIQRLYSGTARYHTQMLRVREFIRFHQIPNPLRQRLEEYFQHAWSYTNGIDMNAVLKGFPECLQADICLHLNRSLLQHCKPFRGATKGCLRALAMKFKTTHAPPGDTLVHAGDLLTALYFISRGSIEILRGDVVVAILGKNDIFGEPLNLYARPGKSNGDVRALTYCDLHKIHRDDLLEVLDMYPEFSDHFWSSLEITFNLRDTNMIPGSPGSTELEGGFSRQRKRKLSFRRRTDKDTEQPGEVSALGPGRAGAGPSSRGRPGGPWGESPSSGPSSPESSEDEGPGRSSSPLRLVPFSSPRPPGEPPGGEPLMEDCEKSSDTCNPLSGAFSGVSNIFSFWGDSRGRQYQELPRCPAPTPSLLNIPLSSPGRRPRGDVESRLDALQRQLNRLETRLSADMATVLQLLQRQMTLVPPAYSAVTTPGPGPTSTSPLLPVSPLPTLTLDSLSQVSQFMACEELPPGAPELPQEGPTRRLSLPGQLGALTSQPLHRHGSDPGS

Point of comparison: CCc1nnc(NC(=O)CCC(=O)NCc2ccccc2Cl)s1, “hERG current change (%, negative = inhibition) at 10uM” value -0.367%. Against it:
- CCOC(=O)c1ccc(NC(=S)N2CCSC2c2ccc(OC)cc2)cc1 (stereo not shown) — higher, 3.01%
- O=C(Nc1cccnc1Cl)c1cccc(F)c1 — higher, 9.2%
- CCCn1c2ccccc2c2cnn(CC(=O)NCCCN3CCCC(C)C3)c(=O)c21 (stereo not shown) — lower, -70.8%
- CC(C(=O)N1CCOCC1)N1C(=O)C2C3C=CC(C4CC34)C2C1=O (stereo not shown) — higher, 18%
- NNC(=O)Cn1c(-c2nonc2N)nc2ccccc21 — higher, 13.8%
- Cc1ccc(CN2C3=NCCCN3c3ccccc32)cc1.Cl — lower, -61.2%
- Cn1nccc1NC(=O)CSCC(=O)O — higher, 16.9%
- CCOc1ccc(OCc2ccc(C(=O)O)o2)cc1 — higher, 10.2%
- CCCCC(c1nnnn1Cc1ccco1)N1CCN(c2nc3ccccc3s2)CC1 (stereo not shown) — lower, -38.4%
- C/C(=N\NC(=O)CSc1nc2ccccc2s1)c1ccco1 — higher, 0.0885%
- CCN(CC)CCNC(=O)C(=O)NCC1OCCN1S(=O)(=O)c1ccc2c(c1)OCCO2 (stereo not shown) — lower, -5.94%
- CC(=O)Nc1ccccc1-c1nc2cc(C#N)c(C#N)cc2[nH]c1=O — lower, -4.17%
- CCOc1ccc(CNS(=O)(=O)c2ccc3c(c2)CC(=O)N3C)cc1 — lower, -1.45%
- COC(=O)C1=CN(CC2CCCO2)C=C(C(=O)OC)C1c1ccccc1C(F)(F)F (stereo not shown) — higher, 8.49%
- CC(C)[C@H](NC(=O)c1ccccc1F)C(=O)NCCc1ccccc1 — higher, 9.54%
- O=C(CN1C(=O)NC2(CCCC2)C1=O)Nc1ccccc1 — higher, 10.9%
- COc1cccc(NC(=O)Nc2ccc3c(c2)nnn3C)c1 — higher, 8.18%
- Clc1ccc(-c2ncc3ccccn23)cc1 — lower, -4.95%
- CCOC(=O)c1c(CN2CCN(Cc3ccccc3)CC2)n(C)c2cc(Br)c(OC)cc12 — higher, 7.08%
- COc1cc(OC)cc(-c2oc(=O)c3cc(OC)c(OC)cc3c2C#CCCCO)c1 — higher, 16.8%
- Brc1cc2[nH]cnc2c2ccccc12 — higher, 7.91%
- O=C(Nc1ccc2oc(=O)ccc2c1)c1ccco1 — lower, -2.37%
- O=C(CCC(=O)n1ncc2ccccc21)NCc1ccc(F)cc1 — lower, -18.1%
- COC(=O)c1ccc(OCC(O)CN2CCc3cc(OC)c(OC)cc3C2c2ccccc2)cc1 (stereo not shown) — lower, -40.4%
- c1ccc(CCCN2CCN(c3ccccc3)CC2)cc1 — lower, -61.3%
- CCOc1ccc2c(c1)C(=O)c1cc(OCC(=O)O)ccc1-2 — higher, 7.08%
- COc1ccc(CC(=O)NCCN2CCCC2)cc1.Cl — higher, 4.76%
- CC1(C)NC(=O)N(CC(O)CN(c2cccc([N+](=O)[O-])c2)S(=O)(=O)c2ccccc2)C1=O (stereo not shown) — higher, 3.98%
- CC(OC(=O)CCc1nc2ccccc2c(=O)[nH]1)C(=O)NC1CCCC1 (stereo not shown) — higher, 9.21%
- COCCCn1c(N)c(C(=O)Nc2sc3c(c2C(=O)OC)CCCC3)c2nc3ccccc3nc21 — higher, 2.24%
- O=C(c1ccccc1C(F)(F)F)N1CCN(S(=O)(=O)c2ccccc2)CC1 — higher, 23.6%
- Brc1ccc(C2=NC(Cc3ccccc3)CO2)cc1 (stereo not shown) — lower, -2.02%
- C(=N\N1CCN(Cc2ccccc2)CC1)/c1ccc(-c2ccccc2)cc1 — lower, -11.3%
- COc1ccccc1N(CC(=O)NCc1ccccc1)S(C)(=O)=O — higher, 6.12%
- O=C(NCc1cccnc1)c1cc(-c2ccco2)on1 — higher, 8.02%
- C/C(=N\NC(=O)c1ccc(CSc2nncn2C)cc1)c1ccc2ccccc2c1 — higher, 11.9%
- Cc1ccc(NS(=O)(=O)c2cc(OCC(N)=O)c(C)cc2Cl)cc1 — higher, 0.202%
- CC(=O)Oc1ccc(C(=O)Nc2cccc(C(=O)c3ccc(C)c(C)c3)c2)cc1 — lower, -46.2%
- Nn1c(SCC(=O)Nc2ccc(F)cc2)nnc1C1CCCCC1 — lower, -9.96%
- Cc1noc(C)c1COc1ccccc1C(=O)N1CCN(c2cccc(C(F)(F)F)c2)CC1 — lower, -38%
- CCOC(=O)c1ccc(N/C=C2/CCCC(C)C2=O)cc1 (stereo not shown) — higher, 16%
- CCn1c(SCC(=O)NCCc2ccc(F)cc2)nnc1-c1cccs1 — lower, -61.9%
- Cc1cc(-c2ccc(C)c(S(=O)(=O)NCCC(C)N3CCCCCC3)c2)on1 (stereo not shown) — lower, -11.6%
- Nc1nc(SCc2cccc(Br)c2)n[nH]1 — higher, 8.49%
- Cc1ccc(-n2nnnc2SC(C)C(=O)Nc2ccc(Cl)cn2)cc1 (stereo not shown) — lower, -22.1%
- CC(=O)c1ccc(OCC(O)CN2CCN(CC(O)COc3ccc(C(C)=O)cc3)CC2)cc1 (stereo not shown) — lower, -39.4%
- CCc1cccc(C)c1NC(=O)Cn1nc(C)n2cccc2c1=O — higher, 22.9%
- COc1ccccc1N1C(=O)c2ccc(C(=O)Nc3nccs3)cc2C1=O — higher, 17.5%
- COc1ccccc1NC(=O)CSc1nc(N)c(C#N)cc1C#N — higher, 17.5%
- N#Cc1cc2c(nc1SCC1COc3ccccc3O1)CCC2 (stereo not shown) — lower, -7.43%
- COc1ccccc1CN1CC(C(=O)NCc2cc(C)on2)CCC1=O (stereo not shown) — higher, 15.1%
- Cc1ccccc1N(C(=O)CCC(=O)Nc1ccccn1)C(C(=O)NC(C)C)c1ccc(F)cc1 (stereo not shown) — higher, 7.84%
- Cc1ccc(-n2c(SCC(=O)Nc3cc(C)on3)nc3c([nH]c4ccccc43)c2=O)cc1 — higher, 2.04%
- Cc1ccc(OC(=O)Nc2ccccc2)cc1 — higher, 7.21%
- COc1cccc(NC(=O)c2cnc[nH]2)c1 — higher, 25.1%
- CC(C)OCCCNC(=O)C1CCN(S(=O)(=O)c2ccc3nc4c(c(C(=O)O)c3c2)CCCCC4)CC1 — higher, 30.8%
- Cc1cc(C(=O)N2CCCC(N3CCN(c4cccc(Cl)c4)CC3)C2)no1 (stereo not shown) — lower, -27.8%
- CCCCN1CN(Cc2ccccc2)CNC1=S — higher, 14.9%
- O=C(CSc1ncn[nH]1)NC12CC3CC(CC(C3)C1)C2 — lower, -5.91%
- O=C1NC(=S)N/C1=C/c1cccnc1 — higher, 4.46%
- CCOC(=O)C1CCN(Cc2nc(-c3ccc(OC)c(OC)c3)no2)CC1 — higher, 2.83%
- COC(=O)CC(NS(=O)(=O)c1cccs1)c1ccccc1Cl (stereo not shown) — higher, 23.3%
- NNC1=[NH+][C@H]2CS(=O)(=O)C[C@H]2S1.[Br-] — higher, 11.8%
- CC(C)=C1C2CCC1C(C(=O)NCc1ccccc1)C2C(=O)O (stereo not shown) — higher, 14.8%
- CCCN(C(=O)CSc1cc(-c2ccccc2)c2ccc(OC)cc2n1)C1CCS(=O)(=O)C1 (stereo not shown) — higher, 4.44%
- O=C(CCN1C(=O)/C(=C/c2cccc(Br)c2)SC1=S)Nc1cccnc1 — higher, 11%
- CCOC(=O)Cn1nc(C)c2ccccc2c1=O — higher, 2.58%
- COc1ccccc1CCNC(=O)C(=O)c1cn(CC(=O)N2CCCC2)c2ccccc12 — lower, -7.5%
- Cc1ccccc1C(=O)OCC(=O)N(C)c1ccccc1 — lower, -11.6%
- O=C(Cn1cnc2ccccc21)N/N=C/c1cccc([N+](=O)[O-])c1 — higher, 1.93%
- CC(C)NC(=O)C1CC=CCC1C(=O)O (stereo not shown) — higher, 1.83%
- CCc1ccc(NC(=S)N(CCOC)C2CCN(C(C)=O)CC2)cc1 — higher, 12.5%
- CCOC(=O)Cn1c(=S)[nH]c2c(oc3ccc(Cl)cc32)c1=O — higher, 8.1%
- NNC(=O)c1csc(CS(=O)(=O)c2ccc(Cl)cc2)n1 — lower, -2.1%
- O=S(=O)(NCCc1cn2ccccc2n1)c1ccc(F)c(C(F)(F)F)c1 — lower, -48.8%
- Cc1ccc(CNC(=O)CCNS(=O)(=O)c2ccc(C)cc2)cc1 — higher, -0.111%
- CCOC(=O)C1=C(CS(=O)(=O)c2ccccc2)NC(=O)NC1c1ccccc1 (stereo not shown) — higher, 7.48%
- COc1ccc(C(=O)N2CCC(O)(c3ccc(Cl)cc3)CC2)cc1OC — lower, -51.9%
- COCCNC(=O)/C(C#N)=C/c1cccc(NC(=O)c2ccccc2Cl)c1 — lower, -3.15%
- COCCN=C1Sc2nc3cc4c(cc3cc2CN1CC1CCCO1)OCO4.Cl (stereo not shown) — lower, -5.22%
- Cc1ccc(S(=O)(=O)N2Cc3ccccc3CC2C(=O)Nc2ccc3c(c2)OCO3)cc1 (stereo not shown) — lower, -9.83%
- CCn1c(SCc2nc(-c3ccccc3)no2)nc2ccccc21 — lower, -24.6%
- CCCCC(CC)C(=O)Nc1ccc(S(=O)(=O)Nc2nccs2)cc1 (stereo not shown) — higher, -0.352%
- Cc1ccc(NC(=O)N2CCCn3c(SCC(=O)c4ccccc4)nnc32)cc1 — lower, -1.04%
- Cc1cc(C)nc(N/N=C/C=C/c2ccccc2)n1 — lower, -49%
- COc1ccc(CNC(=O)CNC(=O)c2sc3ccccc3c2Cl)cc1OC — higher, 6.04%
- Cc1ccc(C(=O)CN(CCCC(N)=O)C(=O)c2ccncc2)cc1 — higher, 17.9%
- Cc1cc(C)c(C)c(OCC(=O)O/N=C(\N)c2ccncc2)c1 — lower, -10.5%
- CC(C)(C)c1csc(NNC(=O)c2ccc(Cl)cc2)n1 — higher, 6.98%
- CN(C)S(=O)(=O)c1cccc(NC(=O)COC(=O)COc2ccccc2[N+](=O)[O-])c1 — higher, 8.02%
